Experimental data taken from PubChem BioAssay AID485281 (National Center for Advancing Translational Sciences (NCATS), 2010).
“And” between values parts separate entries of the source, which are not always exact repeats. Equal values may be shown once. About 260 (0.074%) of roughly 350,000 compounds were called active. This list was built around the results that the source calls inconclusive (neither active nor inactive); the mix of calls is not that of the screen. Calls follow the shape of the dose curve; as a rule, active = well fitted inhibition curve with a large enough effect; inconclusive = small, poorly fitted or top-dose-only effect; inactive = no such curve, though single readings can be large or run the other way. Potencies beside an inconclusive call are fits to weak or partial responses and may not hold up. The source holds several records for some structures; these can differ, active in one and inactive in another.

Molecular target: Ferritin light chain (Equus caballus) (UniProt P02791)
UniProt P02791, sequence (P02791 whole entry, looked up): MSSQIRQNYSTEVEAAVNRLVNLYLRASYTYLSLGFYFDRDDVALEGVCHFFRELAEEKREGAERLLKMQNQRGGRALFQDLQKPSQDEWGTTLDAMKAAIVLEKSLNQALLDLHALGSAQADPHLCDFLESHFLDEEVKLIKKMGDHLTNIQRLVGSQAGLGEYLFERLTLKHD
Assay: qHTS Assay for Identification of Novel General Anesthetics; also: nearly all actives have a fitted effect of over 20% in size
Details: apoferritin/1-aminoanthracene competitive binding, fluorescence; activity change, negative = displacement: at 77.5 µM (top of the series)
In short: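 Horse-spleen apoferritin (10 uM) in 50% saturated 1-aminoanthracene in PBS was incubated 10 min at room temperature with compound. Fluorescence (ex 380, em 535 nm) was normalized to free and bound 1-AMA, with concentration-response fitted by a four-parameter Hill equation.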
% is scaled to controls: 0 for no effect and ±100 for the full control effect; potency is read from the fitted curve at half-maximal effect; tags tell the direction and shape of the fitted curve.

| SMILES | Potency | activity change, negative = displacement |
| --- | --- | --- |
| O=C(CCC1CCCC1)Nc1cccc(Cc2ccncc2)c1 | inconclusive: 20 µM [inhibitor, partial curve] |  |
| c1ccc(COc2ccc(CNCc3cccs3)cc2)cc1 | inconclusive: 11.2 µM [inhibitor, partial curve] |  |
| Cc1ccc(C(=O)OCC(=O)Nc2ccc(N(C)C)cc2)cc1NC(=O)c1ccco1 | inconclusive: 31.6 µM [inhibitor, single point] |  |
| COc1ccc(N2CCN(C(=O)c3ccc(COc4ccc([N+](=O)[O-])cc4)o3)CC2)cc1 | inconclusive: 35.5 µM [inhibitor, single point] |  |
| CC(=O)N1CCc2cc(S(=O)(=O)NC(CC(C)C)C(=O)Nc3cc(C)cc(C)c3)ccc21 (stereo unspecified) | inconclusive: 22.4 µM [inhibitor, partial curve] |  |
| CCOC(=O)c1nc(NCc2ccc(Cl)cc2)c2c(C)noc2n1 |  | inactive: -9.19% |
| C=CC(C1=CC(=O)C(OC)=C(OC)C1=O)c1ccccc1 (stereo unspecified) | inconclusive: 35.5 µM [inhibitor, single point] |  |
| CCOC(=O)c1c(C)n(C)c2ccc(O)c(CN(CC)CC)c12 | inconclusive: 50.1 µM [inhibitor, single point] |  |
| Cc1ccc(C)c(-c2ccc(=O)n(Cc3c(F)cccc3Cl)n2)c1 | inactive and active: 44.7 µM |  |
| O=C(Oc1ccc(C(=S)N2CCOCC2)cc1Br)c1cc(Cl)ccc1Cl | inconclusive: 10 µM [inhibitor, partial curve] |  |
| CCSc1ncc(Cl)c(C(=O)Nc2sc3c(c2C(=O)NCCCOC)CCCC3)n1 |  | inactive: -6.43% |
| O=C(CO/N=C/c1ccc(OC(F)F)cc1)NC1CCCCCC1 | inconclusive: 11.2 µM [inhibitor, partial curve] |  |
| CCS(=O)(=O)c1nc(S(=O)(=O)c2ccc(C)cc2)c(N2CCC3(CC2)OCCO3)s1 | inconclusive: 22.4 µM [inhibitor, partial curve] |  |
| Cc1nn(Cc2ccc(C(=O)NN)cc2)c(C)c1Cl | inconclusive: 22.4 µM [inhibitor, partial curve] |  |
| COc1ccc(N2C(=O)CSC23C(=O)N(CC(=O)NCCc2ccccc2)c2ccccc23)cc1 (stereo unspecified) | inconclusive: 15.8 µM [inhibitor, partial curve] |  |
| O=[N+]([O-])c1ccc(N=Nc2c(Cl)cc(O)cc2Cl)cc1 | inconclusive: 50.1 µM [inhibitor, single point] |  |
| Cn1c(N)c(C(=O)COC(=O)[C@H](Cc2ccccc2)N2C(=O)c3ccccc3C2=O)c(=O)n(C)c1=O | inconclusive: 15.8 µM [inhibitor, partial curve] |  |
| COc1cc(N=c2ssnc2Cl)cc(OC)c1OC | inconclusive: 11.2 µM [inhibitor, partial curve] |  |
| OCCC1CN(Cc2cc(F)ccc2-n2cccn2)CCN1C1CCCC1 (stereo unspecified) |  | inactive: 2.77% |
| CSc1ccc(CN2C(=O)NC3(CCCCCCC3)C2=O)cc1 | inconclusive: 28.2 µM [inhibitor, partial curve] |  |
| CCCOc1ccc(CNC(=S)Nc2ccccc2)cc1Cl | inconclusive: 20 µM [inhibitor, partial curve] |  |

| SMILES | Potency | activity change, negative = displacement |
| --- | --- | --- |
| Cn1nc(C(C)(C)C)c([N+](=O)[O-])c1C(=O)NCCO |  | inactive: 0.0538% |
| O=C(NCCSc1ccccc1)c1cccnc1 |  | inactive: -5.9% |
| Cc1ccc(S(=O)(=O)N/N=C\c2ccc3c(c2)OCO3)cc1C | inconclusive: 20 µM [inhibitor, partial curve] |  |
| CC[C@H](C)[C@H](NC(=O)[C@H](Cc1ccc(O)cc1)NC(=O)[C@H](Cc1cnc[nH]1)NC(=O)[C@H](CCCNC(=N)N)NC(=O)[C@H](CC(C)C)NC(=O)[C@H](C)NC(=O)[C@H](CO)NC(=O)[C@H](Cc1ccc(O)cc1)NC(=O)[C@H](Cc1ccc(O)cc1)NC(=O)[C@H](CCCNC(=N)N)NC(=O)[C@H](C)NC(=O)[C@H](CCSC)NC(=O)[C@H](CC(=O)O)NC(=O)[C@H](CCC(=O)O)NC(=O)[C@H](C)NC(=O)[C@@H]1CCCN1)C(=O)N[C@@H](CC(N)=O)C(=O)N[C@@H](CC(C)C)C(=O)N[C@H](C(=O)N[C@H](C(=O)N[C@@H](CCCNC(=N)N)C(=O)N[C@@H](CCC(N)=O)C(=O)N[C@@H](CCCNC(=N)N)C(=O)N[C@@H](Cc1ccc(O)cc1)C(N)=O)[C@@H](C)O)[C@@H](C)CC |  | inactive: -0.858% |
| CC1(C)CC(=O)C2=C(C1)N(Cc1ccco1)C(=O)C2(NC(=O)c1ccc(Cl)cc1Cl)C(F)(F)F (stereo unspecified) | inconclusive: 56.2 µM [inhibitor, single point] |  |
| Cc1c(C(=O)OCC(=O)N2CC(C)OC(C)C2)oc2ccc(Br)cc12 (stereo unspecified) | inconclusive: 22.4 µM [inhibitor, partial curve] |  |
| CC(C)CSc1nnc(N)s1 | inconclusive: 28.2 µM [inhibitor, partial curve] |  |
| COc1ccccc1/C=C/C(=O)N1CCC(c2ccccc2)C1 (stereo unspecified) | inconclusive: 50.1 µM [inhibitor, single point] |  |
| Cc1cc(C)c2sc(N3CCN(C(=O)c4ccc(N(C)C)cc4)CC3)nc2c1 | inconclusive: 7.94 µM [inhibitor, full curve] |  |
| COc1cc(C(=O)Nc2ccc(NC(=O)c3cccc(Cl)c3)nc2)cc(OC)c1OC | inconclusive: 35.5 µM [inhibitor, single point] |  |
| Cc1cc2oc(=O)cc(Cn3ncc(Cl)c(Cl)c3=O)c2cc1Cl |  | inactive: -8.25% |
| CCCCOc1ccc(-c2csc(N)n2)cc1[N+](=O)[O-] | inconclusive: 35.5 µM [inhibitor, partial curve] |  |
| S=c1[nH]nc(C2CCCCC2)n1/N=C/c1ccc(Cl)cc1 |  | inactive: -2.19% |
| CC(C)(C)c1csc(Sc2ncccc2[N+](=O)[O-])n1 | inconclusive: 31.6 µM [inhibitor, single point] |  |
| CSc1nnc(NC(=O)c2ccc(S(=O)(=O)N3CCOCC3)cc2)s1 |  | inactive: -4.23% |
| COc1ccc(Cl)cc1-c1n[nH]c(=S)n1C1CCCCC1 | inconclusive: 39.8 µM [inhibitor, single point] |  |
| CCCC1CC(=O)OC1(C)C(=O)CSc1n[nH]c(-c2ccccc2)n1 (stereo unspecified) | inconclusive: 20 µM [inhibitor, partial curve] |  |
| Cc1ccc(-c2ccc(=O)n(CCC(=O)NCCc3ccccc3)n2)cc1 | inconclusive: 17.8 µM [inhibitor, partial curve] |  |
| O=C(c1cccc([N+](=O)[O-])c1)N1CC2C3C=CC(C3)C2C1 (stereo unspecified) | inconclusive: 17.8 µM [inhibitor, partial curve] |  |
| COc1ccc(/C=N/NC(=O)CCC(=O)Nc2ccc(F)cc2)c(OC)c1 | inconclusive: 14.1 µM [inhibitor, partial curve] |  |
| CC1CCCC(C)N1/N=C/c1ccc([N+](=O)[O-])cc1 (stereo unspecified) | inconclusive: 35.5 µM [inhibitor, single point] |  |

| SMILES | Potency | activity change, negative = displacement |
| --- | --- | --- |
| Cc1ccc(C)c(Sc2ccc(NC(=O)CCl)cc2)c1 | inconclusive: 44.7 µM [inhibitor, single point] |  |
| O=C(NCc1ccco1)C(=O)c1cn(CC(=O)N2CCCCCC2)c2ccccc12 | inconclusive: 31.6 µM [inhibitor, single point] |  |
| COC(=O)c1ccc(NC(=S)N2CCC(C(N)=O)CC2)cc1 |  | inactive: -6.95% |
| Clc1ccc(-n2ncc3c(NCc4cccs4)ncnc32)cc1 | inconclusive: 39.8 µM [inhibitor, partial curve] |  |
| Nc1ccc(S(=O)(=O)C(F)(F)F)cc1N | inconclusive: 39.8 µM [inhibitor, single point] |  |
| CC(C)(C)C(=O)NCC(c1ccc2c(c1)OCO2)N1CCOCC1 (stereo unspecified) | inconclusive: 5.62 µM [inhibitor, single point] |  |
| Cc1ccccc1Cn1cc(NC(=O)COc2ccccc2)cn1 | inconclusive: 35.5 µM [inhibitor, partial curve] |  |
| O=C1NC(=Nc2ccccc2Cl)S/C1=C\c1cccc([N+](=O)[O-])c1O | inconclusive: 35.5 µM [inhibitor, partial curve] |  |
| COc1ccc(NC(=O)C(OC(=O)c2cnccn2)c2ccccc2)cc1Cl (stereo unspecified) | inconclusive: 10 µM [inhibitor, full curve, poor fit] |  |
| CCOc1ccc(CCNC(=O)C(CC)n2nc(C)n3c(cc4sccc43)c2=O)cc1OCC (stereo unspecified) | inconclusive: 25.1 µM [inhibitor, partial curve] |  |
| O=C(Cn1ncc2c3ccccc3n(Cc3cccc(Cl)c3)c2c1=O)Nc1ccc(F)cc1F |  | inactive: -1.24% |
| CC(C)(C)c1ccc(Cn2nnc3c(=O)[nH]c(C4CCN(C(=O)Cc5cccs5)CC4)nc32)cc1 | inconclusive: 11.2 µM [inhibitor, full curve] |  |
| O=C1S/C(=C\C=C\c2ccco2)C(=O)N1c1ccccc1 | inconclusive: 31.6 µM [inhibitor, single point] |  |
| COc1ccc(N(CC(=O)NCc2ccccc2C)S(=O)(=O)c2ccccc2[N+](=O)[O-])c(OC)c1 | inconclusive: 15.8 µM [inhibitor, partial curve] |  |
| COc1ccc(C(=O)CC(=O)c2ccc(OC)cc2)cc1 |  | inactive: -3.93% |
| Cc1ccc(C(=O)N(Cc2ccccc2)C(C)(C)C)cc1C | inconclusive: 50.1 µM [inhibitor, single point] |  |
| c1cncc(-c2nc(-c3ccc4c(c3)OCCO4)cs2)c1 | inconclusive: 31.6 µM [inhibitor, single point] |  |
| CCCC(=O)OCc1cnc(C)c2oc(=O)c(C(=O)Nc3cccc(C(F)(F)F)c3)cc12 | inconclusive: 25.1 µM [inhibitor, partial curve, poor fit] |  |
| O=C(Cc1cccs1)N1CCN=C1SCc1ccc(Br)cc1 | inconclusive: 3.55 µM [inhibitor, full curve] |  |
